By % Inhibition is commonly meant the relative decrease from the control value, in per cent.

Each structure is given as a SMILES string. About 540 (0.36%) of roughly 150,000 compounds showed an effect of 50% or more. The list shows a part of the results.

The test system of this assay is Plasmodium falciparum. In words: Primary screen in NF54 nanoGlo assay, in single point, at 2uM, 72h; a lower Z score goes with more inhibition. The assay is classed as functional, Erythrocyte. The conditions noted are these: timepoint 72 hour.
For the compound `CC(C)C(=O)NC1CCN(c2nc(Cc3ccc(F)cc3)no2)CC1`, the “% Inhibition” value is listed as 36% and the Z score is -1.54.

Consider `O=C(NCCC1(O)CCOCC1)c1cc2n(n1)CCC2`, for which the “% Inhibition” value was -10% and the Z score stood at 1.41.

On to `Cc1c(CC(=O)N2CCN[C@H](C)C2)c2c(n1Cc1ccccc1)CCCC2=O`, for which the “% Inhibition” value is listed as -4% and the Z score is reported as 0.73.

In the case of `CCC[C@H]1CN(c2ncnc3ccsc23)C[C@@H]1N(C)C`, the “% Inhibition” value is listed as -6% and the Z score is given as 1.14.

Take `CCc1nc(=O)c(C#N)nn1-c1ccc(OC)cc1`: the “% Inhibition” value is recorded as -3% and the Z score is recorded as 0.38.

Take `Cc1nn(CC(=O)N(C)c2ccccc2)c(C)c1Br`: the “% Inhibition” value amounted to 5% and the Z score is recorded as -0.65.

Turning to `Cn1ccc(NC(=O)CC2(N3Cc4ccccc4C3=O)CCCCC2)n1`, the “% Inhibition” value is recorded as -3% and the Z score was 0.41.

For `CCc1nnc(CN(CC)C(=O)Nc2ccc3c(c2)C[C@H](C)O3)o1`, the “% Inhibition” value is listed as -12% and the Z score is on record as 2.25.

For the compound `c1nc(N2CC3CCCC3C2)c2cn[nH]c2n1` (stereo not drawn), the “% Inhibition” value is reported as 2% and the Z score was -0.24.

With `Cc1nc(N)nc(C)c1C(=O)Nc1ccc(Nc2ncccn2)cc1`, the “% Inhibition” value is listed as 43% and the Z score is listed as -8.17.

`CC1CC(C(=O)Nc2ccccc2-c2cn[nH]c2)CC(=O)N1` (stereo not drawn): the “% Inhibition” value is recorded as -1% and the Z score is recorded as 0.24.

`Cc1cc(C)c2[nH]c(C)c(CC(=O)NCc3nnc(C)o3)c2c1`: the “% Inhibition” value is given as -19% and the Z score is 2.25.

Take `O=C(NCc1nccn1CCCc1ccccc1)N1CCc2c(F)cccc21`: the “% Inhibition” value was -12% and the Z score worked out at 1.25.

Consider `CC(NC1CC(O)C1(C)C)c1cc2n(n1)CCC2` (stereo not drawn), for which the “% Inhibition” value is reported as -4% and the Z score is given as 0.59.

With `Cc1noc(C)c1S(=O)(=O)N[C@H]1CCOC[C@@H]1OCc1cscn1`, the “% Inhibition” value is -12% and the Z score is recorded as 2.34.

As for `COC(CNC(=O)C1CCCO1)c1ccccc1` (stereo not drawn), the “% Inhibition” value turned out to be 3% and the Z score is reported as -0.48.

For the compound `CCN(Cc1nc(C)no1)C(=O)[C@@H]1COc2c(cccc2OC)C1`, the “% Inhibition” value is -1% and the Z score worked out at 0.08.

Take `CCCCN(CC)c1cc(Oc2ccc(Cl)cc2)ncn1`: the “% Inhibition” value is -8% and the Z score is 0.73.

For `CC(=O)N1CCC([C@@H]2CN(C(=O)Cc3cccc(C)c3)C[C@H]2CO)CC1`, the “% Inhibition” value was -5% and the Z score is reported as 0.96.

For `O=C(Cc1ccoc1)N1CCC[C@H](Cn2cnc3ccccc32)C1`, the “% Inhibition” value is 19% and the Z score was -2.36.

As to `Cc1ccc(C(=O)NS(=O)(=O)C[C@H]2CCCO2)nc1C`, the “% Inhibition” value is given as 1% and the Z score was -0.15.

On to `CCOC(=O)N1CCC[C@@]2(CCN(Cc3nc(-c4ccccc4)no3)C2)C1`, for which the “% Inhibition” value was -8% and the Z score is on record as 1.05.

As for `Cc1ccc(OCC(=O)N2CC[C@@H](N)C2)c(C)c1`, the “% Inhibition” value is reported as -1% and the Z score was 0.12.

Regarding `O=C(O)[C@@H]1CN(C(=O)c2nc(-c3ccccc3)n(-c3ccccc3)n2)CCO1`, the “% Inhibition” value is -9% and the Z score was 1.36.

With `CNc1nc(Nc2ccc(OC(F)(F)Cl)cc2)nc(N2CCN(c3cccc(Cl)c3)CC2)n1`, the “% Inhibition” value is -11% and the Z score amounted to 1.51.

As for `CCOc1ccccc1CN[C@@H](CC)CO`, the “% Inhibition” value is listed as -6% and the Z score was 1.17.

Consider `COCCc1nc2c(c(N3CCN(c4cccc(C)c4)CC3)n1)CCOCC2`, for which the “% Inhibition” value turned out to be 4% and the Z score is recorded as -0.38.

Consider `CCCN(CC(=O)O)S(=O)(=O)c1c(Cl)cccc1Cl`, for which the “% Inhibition” value was determined as 3% and the Z score is -0.44.

As to `O=C1CCN(Cc2cccc(OC(F)(F)F)c2)CCCCCCN1`, the “% Inhibition” value is -13% and the Z score is 2.28.

`CCOC1CC(N(C)CC(=O)Nc2c(C)nn(C)c2C)C12CCCC2` (stereo not drawn): the “% Inhibition” value is reported as -11% and the Z score turned out to be 1.54.

For the compound `CCOC(=O)c1cc(-c2ccc(N3CCN(C(=O)c4cnn(C)c4Cl)CC3)cc2)n(-c2ccccn2)n1`, the “% Inhibition” value is -4% and the Z score worked out at 0.4.

As to `CNS(=O)(=O)c1cc(C(=O)N[C@@H]2C(=O)OCC2(C)C)ccc1OC`, the “% Inhibition” value is on record as -4% and the Z score was 0.34.

`O=C(CCNCCc1nc2c(s1)CCC2)N1CCc2ccccc2C1`: the “% Inhibition” value is given as -8% and the Z score came out at 1.2.

Turning to `Cc1ccc(C)c(NC(=O)NCCn2nnc3cc(S(=O)(=O)NC(C)C)ccc32)c1`, the “% Inhibition” value is given as 32% and the Z score is listed as -3.66.

Turning to `CC(=O)N1CCC(NCc2cccc3c2OC(C)(C)C3)C(C)C1` (stereo not drawn), the “% Inhibition” value was -4% and the Z score came to 0.5.

Regarding `c1csc(-c2nnc(N3CCNCC3)s2)c1`, the “% Inhibition” value is reported as -4% and the Z score was determined as 0.48.

With `CC[C@@H](c1nc2c3cnn(-c4ccccc4)c3ncn2n1)n1cc(Br)cn1`, the “% Inhibition” value came out at 6% and the Z score is recorded as -0.96.

In the case of `CC(C)c1nc(C(=O)N2CCCCCC2C2CCCCC2=O)cs1` (stereo not drawn), the “% Inhibition” value is given as -2% and the Z score is 0.24.

In the case of `CC(C)N1CCC(NC(=O)c2ccon2)C1c1ccc(F)c(F)c1` (stereo not drawn), the “% Inhibition” value was 9% and the Z score is on record as -0.9.

For the compound `CC(C)(C)c1ccc2oc(CN3C[C@@H](C(=O)O)CC3=O)nc2c1`, the “% Inhibition” value amounted to 7% and the Z score is reported as -0.92.

For the compound `CS(=O)(=O)CCN1CCC[C@H](c2ccc(F)cc2)CC1`, the “% Inhibition” value is on record as -4% and the Z score turned out to be 0.59.

`O=C1CN(Cc2ccc(F)cc2Cl)S(=O)(=O)c2ccccc2N1Cc1ccccc1F`: the “% Inhibition” value worked out at 9% and the Z score is listed as -1.07.

With `N=C(COc1ccc(Cl)cc1)NC1CCCCC1`, the “% Inhibition” value is -2% and the Z score is given as 0.23.

On to `CCNc1ccccc1CNc1nncn1C`, for which the “% Inhibition” value was -5% and the Z score is reported as 0.62.

Take `Cc1nc(C(=O)Nc2ccc(Cl)c(-n3nnnc3C3CC3)c2)c(=O)[nH]c1C`: the “% Inhibition” value was -9% and the Z score is 0.76.

On to `Cc1ccc(C)c(NC(=O)[C@H]2CCCN(S(=O)(=O)c3ccc4c(c3)NC(=O)CO4)C2)c1`, for which the “% Inhibition” value was -11% and the Z score came to 1.84.

For the compound `COCC(C)NC(=O)C(C#N)C(=NCc1ccccc1)NCCc1nc(C)c(C)s1` (stereo not drawn), the “% Inhibition” value is recorded as -18% and the Z score is given as 2.4.

On to `CC(=O)c1ccc2c(c1)N(Cc1ccc(C(=O)NCc3ccccn3)cc1)C(=O)CO2`, for which the “% Inhibition” value was -22% and the Z score was 1.93.

As for `Cc1nc(C2(NC(=O)c3ccccc3)CCCCC2)sc1C(=O)Nc1ccccc1`, the “% Inhibition” value is -8% and the Z score is on record as 1.4.

On to `Cc1ncc(CNc2ccccc2C(=O)NCC(F)(F)F)s1`, for which the “% Inhibition” value was -6% and the Z score is on record as 0.74.

Take `Cc1cccc(C)c1CCNC(=O)Cn1cnc2c1CCNC21CCOCC1`: the “% Inhibition” value is -6% and the Z score came out at 1.02.

With `CN1CCC[C@H](Cn2ccc3ccccc3c2=O)C1`, the “% Inhibition” value is on record as -10% and the Z score stood at 1.9.

For `COC(=O)c1ccccc1CN(Cc1cccn1Cc1ccc(C)cc1)CC1CCCCC1`, the “% Inhibition” value is recorded as -10% and the Z score is listed as 1.06.

On to `CCC1CCCCN1C(=O)CC1(c2ccccc2C)CC(=O)N(Cc2ccncc2)C1=O` (stereo not drawn), for which the “% Inhibition” value is recorded as -8% and the Z score is given as 1.02.

The values are drawn from ChEMBL document CHEMBL4888484, “Replenishing the malaria drug discovery pipeline: Screening and hit evaluation of the MMV Hit Generation Library 1 (HGL1) against asexual blood stage Plasmodium falciparum ,using a nano luciferase reporter read-out” (2022).
